# Assay results as given in publication PMC4336329 (PLoS ONE, 2015).
# The whole screen tested about 310,000 compounds, of which about 2,200 (0.71%) showed an effect of 50% or more. Effects have a minus sign here. The list shows a part of the results.
# Target: human ether-à-go-go-related gene (hERG) potassium channel (human, UniProt Q12809)
# Experiment: primary screen, population patch clamp on CHO cells stably expressing hERG
# Sequence of human ether-à-go-go-related gene (hERG) potassium channel (Q12809 whole entry, looked up): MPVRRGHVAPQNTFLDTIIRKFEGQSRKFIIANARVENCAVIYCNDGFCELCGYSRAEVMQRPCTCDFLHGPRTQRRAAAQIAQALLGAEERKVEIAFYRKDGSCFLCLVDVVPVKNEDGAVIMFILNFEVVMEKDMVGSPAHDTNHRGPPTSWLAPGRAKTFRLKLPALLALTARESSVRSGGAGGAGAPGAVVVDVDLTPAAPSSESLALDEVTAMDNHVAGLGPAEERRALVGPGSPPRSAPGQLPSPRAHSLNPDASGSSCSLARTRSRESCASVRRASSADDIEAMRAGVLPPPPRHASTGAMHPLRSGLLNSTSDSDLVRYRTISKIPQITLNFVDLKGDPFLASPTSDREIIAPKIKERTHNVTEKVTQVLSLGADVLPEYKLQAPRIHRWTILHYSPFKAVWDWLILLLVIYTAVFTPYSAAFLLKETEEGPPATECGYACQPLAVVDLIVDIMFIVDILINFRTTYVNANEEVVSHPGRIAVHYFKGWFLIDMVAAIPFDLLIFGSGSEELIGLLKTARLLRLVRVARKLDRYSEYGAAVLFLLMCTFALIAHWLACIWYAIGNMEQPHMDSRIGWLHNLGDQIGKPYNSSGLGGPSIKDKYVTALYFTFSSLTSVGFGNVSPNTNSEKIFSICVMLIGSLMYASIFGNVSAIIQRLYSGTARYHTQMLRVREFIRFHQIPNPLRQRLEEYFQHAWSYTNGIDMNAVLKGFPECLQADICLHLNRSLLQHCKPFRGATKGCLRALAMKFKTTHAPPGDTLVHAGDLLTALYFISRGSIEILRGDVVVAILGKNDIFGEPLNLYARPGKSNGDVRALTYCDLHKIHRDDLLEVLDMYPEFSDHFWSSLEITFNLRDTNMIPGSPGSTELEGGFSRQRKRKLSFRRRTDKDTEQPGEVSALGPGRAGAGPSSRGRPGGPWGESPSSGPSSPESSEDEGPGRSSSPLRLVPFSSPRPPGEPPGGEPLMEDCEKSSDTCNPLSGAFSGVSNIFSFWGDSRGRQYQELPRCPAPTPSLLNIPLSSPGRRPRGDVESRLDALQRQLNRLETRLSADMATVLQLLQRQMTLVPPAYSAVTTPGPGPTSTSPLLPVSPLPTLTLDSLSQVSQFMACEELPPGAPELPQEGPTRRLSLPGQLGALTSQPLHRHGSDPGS
row,Structure (SMILES),"hERG current change (%, negative = inhibition) at 1uM [%]"
1,O=C(NCc1ccc2c(c1)OCO2)C1CCN(c2nccc(C(F)(F)F)n2)CC1,11.6
2,CCOc1cc(N2CCOCC2)c(OCC)cc1NC(=O)c1ccc(OC(C)C)cc1,6.56
3,CN(C)C(=O)CSC1c2ccccc2C(=O)N1c1ccccc1 (centres unmarked),4.41
4,CCC(CC)C1C(C#N)=C(N)Oc2n[nH]c(-c3ccccc3)c21 (centres unmarked),18.3
5,O=C(Nc1ccc(N2CCOCC2)c(Cl)c1)C1CCCCC1,13.1
6,COc1ccc(OC)c(NC(=O)CSc2nnc(N)s2)c1,15.2
7,CCc1ccc(/C=C2\Oc3cc(OS(C)(=O)=O)ccc3C2=O)cc1,6.53
8,CCOC(=O)C1CCN(C(=O)CNC(=O)Cn2c(C)cc3ccccc3c2=O)CC1,10.5
9,Cc1ccc([N+](=O)[O-])cc1S(=O)(=O)N1CCCC1,12.5
10,Cc1ccc2nc(C)cc(N/N=C/c3ccc(F)cc3)c2c1,0.285
11,O=C1C=C(c2cccc(Cl)c2O)C[C@@H](c2ccc(F)cc2)C1,4.16
12,O=C(CCn1ccc([N+](=O)[O-])n1)Nc1nccs1,11
13,CC(=O)N1CCN(S(=O)(=O)c2c(F)cc(F)c(Cl)c2F)CC1,0.475
14,O=C(/C=C/c1ccc(Br)o1)NCc1ccccc1,9.85
15,CSCC[C@H](NC(=O)c1nn(C)c(=O)c2ccccc12)c1nc2ccccc2[nH]1,9.95
16,CCc1c(C)nc2c(C)cccc2c1SCCC#N,15.5
17,Cc1cc(C)c2c(=O)cc(C(=O)NCc3ccccc3)oc2c1,5.25
18,O=C(Nc1nc2c(F)cccc2s1)C1CC1,1.11
19,O=c1[nH]c2ccsc2c(=O)n1-c1ccc(F)c(Cl)c1,7.07
20,O=C(COc1ccc(S(=O)(=O)NC2CCCCC2)cc1)NCc1ccccn1,2.1
21,COC(=O)c1cn(NC(=O)c2ccc3c(c2)OCO3)c(=O)c2ccccc12,16.7
22,N#Cc1c(NC(=O)CSc2nnnn2C2CCCC2)sc2c1CCCC2,-1.72

row,Structure (SMILES),"hERG current change (%, negative = inhibition) at 1uM [%]"
1,CC(=O)C1CCN(Cc2ccccc2)CC1,17.3
2,COc1ccc(Cl)cc1NC(=O)COC(=O)C1CC1,7.38
3,O=C(NCc1ccc(Cl)cc1)C1CCC(=O)N(C2CC2)C1 (centres unmarked),-1.16
4,NC(N)=NS(=O)(=O)c1ccc(NC(=S)NC(=O)/C=C/c2ccco2)cc1,2.78
5,O=C(c1ccccc1)N1CCCC(C(=O)N2CCc3ccccc3C2)C1 (centres unmarked),7.09
6,O=C(CN1C(=O)/C(=C\c2cccc(Cl)c2)Sc2ccccc21)NCCCN1CCOCC1,3.32
7,Cc1ccc(C)c(NC(=S)N2CCC(NC(=O)c3ccccc3)CC2)c1,13.5
8,COc1ccc(N(C)S(=O)(=O)c2ccc(Cl)c(C(=O)NCCc3ccc(Cl)cc3)c2)cc1,-12.4
9,COc1ccc(S(=O)(=O)N2CCSC2c2ccccc2)cc1 (centres unmarked),0.0057
10,Cn1c(=O)cc(SCC(=O)Nc2cccnc2)c2ccccc21,2.11
11,CN(C)c1ccc2c(O)cc(=O)n(C)c2c1,12.2
12,CCC(=NCc1ccco1)c1c(O)n(-c2ccc(OC)cc2)c(=O)[nH]c1=O,4.15
13,C=C(C)C(=O)Nc1cccnc1Oc1ccc(F)cc1F,11.1
14,O=C(Nc1ccccc1)c1cccc(S(=O)(=O)Nc2ccccn2)c1,21.5
15,CCc1ccc(-c2nc(CS(=O)CC(=O)NCCCN3CCC(C)CC3)c(C)o2)cc1 (centres unmarked),9.2
16,COc1cc2c(cc1OC)C(C(=O)N1CCOCC1)C(c1cccs1)N(C)C2=O (centres unmarked),4.23
17,CCCN(C(=O)CSc1nc2ccccc2n1CC)C1CCS(=O)(=O)C1 (centres unmarked),6.33
18,CC1CC(C)(C)CC2(C1)NC(=O)N(CC(=O)N1CCN(S(=O)(=O)c3cccs3)CC1)C2=O (centres unmarked),7.88
19,O=C(Nc1ccc(F)cc1)Nc1cc(S(=O)(=O)N2CCOCC2)ccc1N1CCCC1,-5.8
20,CCN(CC)S(=O)(=O)c1cccc2nsnc12,14.8
21,Cc1ccc(-c2c(C(=O)NC(C)C)oc(=O)c3ccccc23)cc1,1.54
22,CC1Cc2ccccc2N1CC(=O)NCc1ccc2c(c1)OCO2 (centres unmarked),0.915
